Assay results published in PubChem BioAssay AID1347165 (National Center for Advancing Translational Sciences (NCATS), 2019).
In all, about 220,000 compounds went through this assay and about 5,700 (2.6%) were called active. Inconclusive means that the source gave no clear call. Such entries were picked first, then a sample of the others. Calls follow the shape of the dose curve; as a rule, active = well fitted inhibition curve with a large enough effect; inconclusive = small, poorly fitted or top-dose-only effect; inactive = no such curve, though single readings can be large or run the other way. Potencies beside an inconclusive call are fits to weak or partial responses and may not hold up.

Target: Lysine-specific demethylase 5B (Homo sapiens) (UniProt Q9UGL1)
Assay: Primary screen for KDM5B Histone Demethylases FDH-coupled qHTS; also: nearly all actives have a fitted effect of over 70% in size; as to activity change, negative = inhibition: 0% is about no effect
Conditions: FDH-coupled NADH fluorescence (FDH is formaldehyde dehydrogenase); activity change, negative = inhibition: at 57.7 µM (top of the series) unless noted
Summary of the method: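 Compound dilutions met 200 nM (final) KDM5BΔAP for 10 min at room temperature before substrate addition. The substrate mix held 12.5 µM H3K4me3 with cofactors 25 µM α-ketoglutarate and 50 µM Fe²⁺. NADH signal gain over 30 min defined activity.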
Potency is read from the fitted curve at half-maximal effect; tags tell the direction and shape of the fitted curve.

Chain of UniProt Q9UGL1 (Q9UGL1 whole entry, looked up): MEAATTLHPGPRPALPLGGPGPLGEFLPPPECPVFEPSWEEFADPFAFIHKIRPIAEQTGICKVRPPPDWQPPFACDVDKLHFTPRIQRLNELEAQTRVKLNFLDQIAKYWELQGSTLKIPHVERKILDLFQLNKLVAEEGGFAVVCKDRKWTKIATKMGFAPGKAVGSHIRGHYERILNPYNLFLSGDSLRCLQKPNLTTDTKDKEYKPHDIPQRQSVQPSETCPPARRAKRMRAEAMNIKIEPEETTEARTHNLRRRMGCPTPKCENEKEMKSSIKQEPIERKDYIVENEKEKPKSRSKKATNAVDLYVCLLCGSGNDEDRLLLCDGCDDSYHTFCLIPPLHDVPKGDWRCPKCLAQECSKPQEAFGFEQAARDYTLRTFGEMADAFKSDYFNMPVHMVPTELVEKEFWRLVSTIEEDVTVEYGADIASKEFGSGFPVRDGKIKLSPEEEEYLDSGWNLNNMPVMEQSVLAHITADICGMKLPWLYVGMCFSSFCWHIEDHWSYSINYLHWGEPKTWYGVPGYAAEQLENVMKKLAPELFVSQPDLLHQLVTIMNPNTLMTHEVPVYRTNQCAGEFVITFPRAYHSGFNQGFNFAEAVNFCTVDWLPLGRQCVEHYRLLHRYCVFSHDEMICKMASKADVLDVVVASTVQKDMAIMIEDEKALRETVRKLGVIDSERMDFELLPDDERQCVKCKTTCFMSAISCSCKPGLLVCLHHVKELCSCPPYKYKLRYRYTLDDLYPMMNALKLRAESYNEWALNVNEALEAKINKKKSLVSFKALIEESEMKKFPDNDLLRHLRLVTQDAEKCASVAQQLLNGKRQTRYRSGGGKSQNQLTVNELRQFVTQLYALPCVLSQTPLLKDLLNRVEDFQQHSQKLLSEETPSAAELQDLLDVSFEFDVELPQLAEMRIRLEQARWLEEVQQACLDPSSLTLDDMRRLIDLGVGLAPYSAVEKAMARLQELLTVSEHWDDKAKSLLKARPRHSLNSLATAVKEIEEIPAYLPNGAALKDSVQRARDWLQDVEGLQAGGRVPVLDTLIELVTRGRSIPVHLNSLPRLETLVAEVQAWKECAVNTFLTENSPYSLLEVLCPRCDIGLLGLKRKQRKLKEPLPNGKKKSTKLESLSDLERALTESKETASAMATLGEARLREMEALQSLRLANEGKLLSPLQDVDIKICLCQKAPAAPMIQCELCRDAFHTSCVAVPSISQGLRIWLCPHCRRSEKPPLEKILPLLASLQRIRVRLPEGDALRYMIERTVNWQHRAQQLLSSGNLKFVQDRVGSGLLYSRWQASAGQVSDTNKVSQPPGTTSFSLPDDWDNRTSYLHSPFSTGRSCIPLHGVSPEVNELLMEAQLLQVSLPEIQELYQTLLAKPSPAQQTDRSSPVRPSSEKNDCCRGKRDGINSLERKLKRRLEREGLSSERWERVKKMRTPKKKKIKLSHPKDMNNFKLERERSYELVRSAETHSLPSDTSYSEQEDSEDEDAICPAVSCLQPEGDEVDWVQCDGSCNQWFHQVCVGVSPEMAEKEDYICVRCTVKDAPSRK

SMILES | Potency | activity change, negative = inhibition
CC(=O)NC(CO)C(=O)N1CCc2c(nc(-c3cccnc3)nc2N(C)C)C1 (stereo not given) | inconclusive: 12.6 µM [inhibitor, partial curve, poor fit] | 
O=C(OC(C(=O)Nc1ccc(Cl)cc1C(F)(F)F)c1ccccc1)c1ccccc1O (stereo not given) | inconclusive: 1.78 µM [inhibitor, partial curve, poor fit] | 
CC1c2ccsc2CCN1CC(O)COc1ccc(-c2ccccc2)cc1 (stereo not given) | inconclusive: 20 µM [inhibitor, partial curve, poor fit] | 
S=C1NC2=C(CCc3ccccc32)C(c2ccccc2)N1 (stereo not given) | inconclusive: 17.8 µM [inhibitor, partial curve, poor fit] | 
Cc1nn2c(c1-c1ccccc1N1CCCC1)N(C(=O)C1CCOCC1)CCC2 | active: 28.2 µM | 
COCCN1C(=O)c2ccccc2C(C(=O)NCc2ccc(Cl)cc2)C12CCCC2 (stereo not given) | active: 25.1 µM | 
O=S(=O)(c1cccc(Br)c1)N1CCN(c2ccnc3cc(Cl)ccc23)CC1 | inconclusive: 39.8 µM [inhibitor, single point] | 
O=C(O)c1cc(-c2ccc3ccccc3n2)nc2ccc3ccccc3c12 | inconclusive: 3.16 µM [inhibitor, full curve, poor fit] | 
O=C(NCc1ccc(C(F)(F)F)cc1)[C@@H]1Cc2nc[nH]c2CN1Cc1ccccn1 | inconclusive: 31.6 µM [inhibitor, single point] | 
CC(Oc1cccc(Cl)c1)C(=O)N1CCN(c2cc(-c3cccs3)[nH]n2)CC1 (stereo not given) | inconclusive: 22.4 µM [inhibitor, partial curve] | 
O=S(=O)(NCCc1ccccc1)c1ccc(N2CCCCS2(=O)=O)cc1 |  | inconclusive: -36.3% [inhibitor]
CCCCc1ncc(-c2c(-c3ccccc3)ncn2CC2(CO)CCC2)[nH]1 | inactive | 
C/C(=N/Nc1cccc([N+](=O)[O-])c1)c1ccc(Br)cc1 | inactive | 
COC(=O)c1sc(S(=O)(=O)Nc2cc(F)ccc2C)c(C(=O)OC)c1C | inactive | 
CCCn1nc(C(=O)OCC(=O)N2CCCc3ccccc32)c2ccccc2c1=O | inactive | 
CCCn1nc(C(=O)Nc2nc(-c3ccc(OC)cc3)c(C)s2)c2ccccc2c1=O | inactive | 
COc1ccc(NC(=O)N2CCC(NS(=O)(=O)c3cc(Cl)ccc3OC)CC2)cc1 | inactive | 
CCCC(=O)N1N=C(c2cccc(NS(C)(=O)=O)c2)CC1c1cccc(F)c1 (stereo not given) | inactive | 
O=C(O)c1ccccc1CSc1ccc(Cl)cc1 | inactive | 
COc1ccccc1-c1ccnc(-c2nnc(C)n2CCN2CCOCC2)c1 | active: 39.8 µM | 
Fc1ccc2c(c1)nc1n2[C@@H](CNCc2c[nH]c3ccccc23)COC1 | inactive | 
CCCCCN(CCC(=O)NCCC(C)C)C(=O)c1cc(C)oc1C | inconclusive: 25.1 µM [inhibitor, partial curve] | 
CNS(=O)(=O)c1ccc(OC)c(-c2nnc3c4ccccc4c(C)nn23)c1 | inconclusive: 25.1 µM [inhibitor, single point] | 

SMILES | Potency | activity change, negative = inhibition
Cc1ccccc1OCC(=O)N(Cc1ccco1)c1c(N)n(Cc2ccccc2)c(=O)[nH]c1=O | inconclusive: 39.8 µM [inhibitor, single point] | 
Cc1ccc(NCc2cccn2-c2nnc(N3CCC(C(=O)NCc4ccc(OC(C)C)cc4)CC3)s2)cc1 | inconclusive: 31.6 µM [inhibitor, single point] | 
Cn1cc(-c2cccc(C(F)(F)F)c2)c2nc(CNc3ccccc3)cn2c1=O | active: 35.5 µM | 
Cn1cc(C(C(=O)O)N2CCN(c3ncc(Br)cn3)CC2)c2ccc(C(=O)O)cc21 (stereo not given) | inconclusive: 25.1 µM [inhibitor, partial curve, poor fit] | 
CN(Cc1ccccc1)C(=O)C1(C)CCCc2cnc(N(C)C)nc21 (stereo not given) | active: 31.6 µM | 
Cn1c(=O)c2c(ncn2CCCC(=O)Nc2cccc(N3CCCC3=O)c2)n(C)c1=O | inactive | 
CCCNC(=O)N[C@@H]1CCC[C@@H](C(=O)NCCOC)CC(=O)N(C)C1 | inconclusive: 31.6 µM [inhibitor, partial curve, poor fit] | 
CCN(CC)C(=O)Cc1nc(-c2cccs2)oc1C | inconclusive: 25.1 µM [inhibitor, partial curve, poor fit] | 
COc1cccc(-c2nc(-c3nnn4c3COC(c3ccc(C)cc3)C4)no2)c1 (stereo not given) | inconclusive: 3.16 µM [inhibitor, full curve, poor fit] | 
COc1ccc(Nc2c(-c3cc(Br)ccc3O)nc3ncccn23)cc1OC | inconclusive: 35.5 µM [inhibitor, single point] | 
O=C(Cn1ccccc1=O)Nc1ccc(Cl)cc1Cl | inactive | 
Cc1ccc(S(=O)(=O)c2cn(C)c3cc(N4CCN(C)CC4)c(F)cc3c2=O)cc1 | inconclusive: 5.62 µM [inhibitor, partial curve, poor fit] | 
COC(=O)c1cc(-c2cccnc2)nc2ccccc12 | inconclusive: 28.2 µM [inhibitor, partial curve, poor fit] | 
Cc1ccc(Cl)cc1NC(=O)N1CCN(C)c2ncccc21 | inconclusive: 31.6 µM [inhibitor, partial curve, poor fit] | 
O=C(O)c1cnn(-c2nc(-c3ccc(Br)cc3)cs2)c1C(F)(F)F | inconclusive: 22.4 µM [inhibitor, single point] | 
Nc1ncc(S(=O)(=O)Nc2ccccc2)cn1 | inactive | 
CN(C)CC/C=C1\c2ccccc2Sc2cc(F)c(Cl)cc21 | inconclusive: 25.1 µM [inhibitor, single point] | 
CCN1c2cc(C(=O)NCCOc3ccccc3OC)ccc2C(=O)N2CCCCCC21 (stereo not given) | inconclusive: 20 µM [inhibitor, partial curve, poor fit] | 
O=C(NC1CCc2ccccc21)C1Cc2ccccc2O1 (stereo not given) | inactive | 
O=C(O)C(=O)/C(=C/c1cccs1)c1ccc2ccccc2n1 | inconclusive: 39.8 µM [inhibitor, single point] | 
CC(C)C(C(=O)NC1CCCCC1)c1ccc(Cl)cc1 (stereo not given) | inactive | 
CC1=C(C#N)C(NC(=O)c2cccc(Cl)c2)(C(F)(F)F)C(=O)N1 (stereo not given) |  | inconclusive: -31.7% [inhibitor]
